Target: yeast histone H4 (S. cerevisiae, UniProt P02309)
Experiment: SEC-MALS

B1: Cse4 […] (domain or fragment)
chain: not shown
B1: binds.

— PMC3112535 (Nature Communications, 2011)
